The other results are listed elsewhere or left out. This is a noisy data set.

Assay in all cases: mutation enrichment score (mutant vs wild-type peptide binding to bait); baits are purified protein domains named by gene / domain / UniProt id / residues; peptides come from disordered regions of human proteins; higher = mutation enhances binding relative to wild type
The target of test [1] is T1, EPHA3_Pkinase__P29320_606_947.
T1 chain: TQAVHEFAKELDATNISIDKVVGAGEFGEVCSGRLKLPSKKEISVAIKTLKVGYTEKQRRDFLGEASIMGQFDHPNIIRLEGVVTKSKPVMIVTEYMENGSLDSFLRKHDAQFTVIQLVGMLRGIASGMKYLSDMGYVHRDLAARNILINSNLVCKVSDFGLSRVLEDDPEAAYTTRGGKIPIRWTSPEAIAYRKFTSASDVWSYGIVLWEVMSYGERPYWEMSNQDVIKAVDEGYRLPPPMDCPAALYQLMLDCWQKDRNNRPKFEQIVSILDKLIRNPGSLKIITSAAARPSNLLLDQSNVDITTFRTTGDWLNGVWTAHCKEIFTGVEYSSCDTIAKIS
Particulars: number of wild-type / mutant comparisons summed (bounds the score): 6; paper call: no_effect; wild-type window: ….

Test [2] addresses T2, EPHB2_Pkinase__P29323_604_898.
T2 chain: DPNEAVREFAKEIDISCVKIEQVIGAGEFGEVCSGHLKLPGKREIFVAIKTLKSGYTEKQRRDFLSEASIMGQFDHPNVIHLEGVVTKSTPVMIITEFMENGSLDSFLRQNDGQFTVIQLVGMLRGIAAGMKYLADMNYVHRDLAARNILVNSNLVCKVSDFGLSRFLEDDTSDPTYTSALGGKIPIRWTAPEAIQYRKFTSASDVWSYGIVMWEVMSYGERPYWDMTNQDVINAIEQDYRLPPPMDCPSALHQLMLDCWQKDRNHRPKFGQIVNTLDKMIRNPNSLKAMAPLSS
To be noted: number of wild-type / mutant comparisons summed (bounds the score): 6; paper call: no_effect; wild-type window: ….

Test [3] concerns the target WDR5_WD_1234567_P61964_21_334. Particulars: number of wild-type / mutant comparisons summed (bounds the score): 6; paper call: no_effect; wild-type window: ….
The target of test [4] is T3, CLTC_Clathrin-propeller__Q00610_1_364.
T3 chain: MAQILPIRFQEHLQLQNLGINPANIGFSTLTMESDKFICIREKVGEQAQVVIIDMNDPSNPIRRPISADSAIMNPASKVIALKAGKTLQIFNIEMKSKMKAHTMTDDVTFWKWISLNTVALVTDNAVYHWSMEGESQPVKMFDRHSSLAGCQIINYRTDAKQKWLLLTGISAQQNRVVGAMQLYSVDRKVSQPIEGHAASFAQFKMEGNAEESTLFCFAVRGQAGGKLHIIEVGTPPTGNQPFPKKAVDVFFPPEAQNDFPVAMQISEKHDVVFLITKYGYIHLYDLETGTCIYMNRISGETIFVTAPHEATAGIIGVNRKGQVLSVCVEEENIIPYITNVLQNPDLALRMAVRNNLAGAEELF
Particulars: number of wild-type / mutant comparisons summed (bounds the score): 6; paper call: no_effect; wild-type window: ….

Test [5] deals with KPNB1_Heat_1_Q14974_127_876. Particulars: number of wild-type / mutant comparisons summed (bounds the score): 2; paper call: no_effect; wild-type window: ….
The target in test [6] is T4, CHD1_tandem-chromo__O14646_268_443.
T4 chain: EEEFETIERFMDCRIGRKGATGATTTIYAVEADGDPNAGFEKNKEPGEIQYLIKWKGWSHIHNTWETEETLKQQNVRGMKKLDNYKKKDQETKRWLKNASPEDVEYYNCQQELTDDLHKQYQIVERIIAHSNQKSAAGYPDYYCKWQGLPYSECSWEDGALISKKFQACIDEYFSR
Particulars: number of wild-type / mutant comparisons summed (bounds the score): 5; paper call: no_effect; wild-type window: ….

The next test deals with SNX9_SH3_1_Q9Y5X1_3_61. To be noted: number of wild-type / mutant comparisons summed (bounds the score): 12; paper call: no_effect; wild-type window: ….

For the molecule EAMVDKLAENAHNVWARDRIQQGWTYGIQQDVKNRRNPRLV [R1013Q R1013Q], the mutation enrichment score in test [1] and in test [2] was 2 throughout. Consider VLMKTAHGHLVPDRVDKDKEVTKPEFNNHKDYAQEKPSRLK [A1365V A1365V], for which the mutation enrichment score in test [3] turned out to be 1. Consider GTDEEDCPLPEEIRQDLLDFLQDLLAHCGIQLDGEEEEPEE [H2035L H2035L], for which the results for the mutation enrichment score in test [4] and in test [5] were -6 and 2, respectively. As for SWKEIVNLLYELLASLIRGNSSNCALFSTNLDWLVSKLDRL [R533S R533S], the mutation enrichment score in test [6] amounted to 3. VPHRPQERRSSNISQASRSPAMLPVNGKMHSAVDCNGVVSL [P610A P610A]: in the test with SNX9_SH3_1_Q9Y5X1_3_61, the mutation enrichment score was -3. Consider VPHRPQERRSSNISQASRSPTMLPVNGKMHSAVDCNGVVSL [P610T P610T], for which, in the test with SNX9_SH3_1_Q9Y5X1_3_61, the mutation enrichment score was -3.

The record behind these values is the supplement of paper PMC11369174, “Proteome-scale characterisation of motif-based interactome rewiring by disease mutations” (Molecular Systems Biology, 2024).
